“And” between values parts separate entries of the source, which are not always exact repeats. Equal entries are not always repeated. Inconclusive results, whose numbers are uncertain, are shown with a selection of clear calls. For some assays here: No potency is given beside an inconclusive call; the fits are too rough. The source made the active and inactive calls. Unless noted, calls come from the whole dose curve; as a rule, active = well fitted curve in the direction sought with a large enough effect; inconclusive = small, poorly fitted or top-dose-only effect, or another doubt; inactive = no such curve, though single readings can be large; an effect the other way counts as inactive or inconclusive.
Columns and labels:
[1] = Cell Viability - Jurkat (AID 426;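 active = dose-dependent loss of cell ATP signal giving a full or clear fitted curve, ranked by lower potency value; inconclusive = weak partial curve or response only at the top dose; inactive = no loss of viability signal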; note: potency is the fitted concentration of half-maximal effect); conditions: qHTS
Summary of the method: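 Jurkat (Clone E6-1) cells, 5000/well in complete medium, exposed to compounds for 40 hr at 37C; intracellular ATP measured by CellTiter-Glo luminescence after 20 min at room temperature. AC50 from Hill fits.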

[2] = biological target: Mitogen-activated protein kinase 10 (Mus musculus) (UniProt Q61831); assay: JNK3 AlphaScreen Assay (AID 530; active = well fitted curve in either direction with a large enough effect, not every such curve was filed as active; inconclusive = small, poorly fitted or top-dose-only effect, or another doubt;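 note: kinase came from lysate of stimulated human HepG2 cells; signal reports phosphorylation of biotinylated GST-cJun 1-79 at Ser73 with 10 µM ATP; % is set by controls: 0 for no effect and ±100 for the full control effect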); conditions: JNK3 lysate, c-Jun phosphorylation; activity change, negative = inhibition: at 57.1 µM (top of the series)
Summary of the method: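 Pre-activated (IL-1β/TNFα) JNK3 in HepG2 lysates phosphorylates biotin-GST-cJun(1-79), 10 uM ATP; anti-phospho-cJun(Ser73) AlphaScreen read at room temperature, pH 7.6 Tris buffer. Compounds pre-incubated 15 min as titrations.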

[3] = Cell Viability - LYMP2-004 (AID 966); conditions: LYMP2-004 lymphoblastoid cell viability, qHTS; series mostly up to 92.2 µM; note: potency is the fitted concentration of half-maximal effect; nearly all actives have a fitted effect of over 65% in size
Summary of the method: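 Lymphoblastoid LYMP2-004 cells, 2500 per well, were preincubated for 5 hr and then treated with compound for 24 h at 37 C in complete medium. Viability was read as cellular ATP by CellTiter-Glo luminescence, and AC50 values were taken from Hill fits to concentration-response data.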

[4] = Cell Viability - LYMP2-016 (AID 984); conditions: LYMP2-016 lymphoblastoid cell viability, qHTS; activity change, negative = cytotoxicity: at 92.2 µM (top of the series);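 note: cells exposed to compound for 24 hours at 37 °C; % is set by controls: 0 for no effect and ±100 for the full control effect; nearly all actives have a fitted effect of over 55% in size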
Summary of the method: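 Cytotoxicity was scored by luminescent ATP content (CellTiter-Glo) after 24 h compound exposure at 37 C of a human lymphoblastoid line at 2500 cells/well. Concentration-response data were fitted to the Hill equation for AC50.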

[5] = biological target: Bile acid receptor (Homo sapiens) (UniProt Q96RI1); assay: qHTS assay for small molecule agonists of farnesoid X receptor signaling (AID 588527; calls by dose curve;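 note: 0% = vehicle basal and 100% = reference agonist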); conditions: HEK293T FXR-UAS-bla, beta-lactamase ratio, 16 h; activation: hits give high values
Summary of the method: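 Quantitative HTS used FXR-UAS-bla HEK293T cells with 16 h compound incubation at 37 C. EC50 values came from concentration-response curves normalized to chenodeoxycholic acid.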

[6] = qHTS assay for small molecule agonists of the antioxidant response element (ARE) signaling pathway (AID 651741; active = well fitted activation curve with a large enough effect in the signal ratio; inconclusive = small, poorly fitted or top-dose-only effect, or effect the other way, or a change in a side signal; the % refers to the signal ratio; note: % of control where 0% means no effect); conditions: HepG2 ARE-bla reporter, beta-lactamase FRET ratio, 16 h; activation: at 96 µM (top of the series) unless noted
Summary of the method: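 CellSensor ARE-bla HepG2 cells (2,000/well) carrying ARE-driven beta-lactamase, exposed 16 h at 37 C. LiveBLAzer B/G FRET substrate added for 2 h at room temperature; fluorescence intensity read.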

[7] = qHTS assay to identify small molecules that stimulate interleukin-8 (IL-8) secretion (AID 651758; active = well fitted activation curve with a large enough effect in the signal ratio; inconclusive = small, poorly fitted or top-dose-only effect, or effect the other way, or a change in a side signal; the % refers to the signal ratio; note: 0% is about no effect); conditions: HTRF ratio (665/615); activation: at 92.2 µM (top of the series)
Summary of the method: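 THP-1 cells (2000/well) exposed to compound 16 h at 37 C; secreted IL-8 then detected by HTRF with cryptate- and XL665-labelled anti-IL-8 antibody pair after 1-3 h at room temperature.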

[8] = Cell Viability - N2a (AID 540); conditions: N2a mouse neuroblastoma cell viability; activity change, negative = cytotoxicity: at 92.2 µM (top of the series); note: potency is the fitted concentration of half-maximal effect; nearly all actives have a fitted effect of over 45% in size
Summary of the method: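 Mouse neuroblastoma N2a cells, 1500/well, exposed to compounds 40 h at 37 °C in complete medium. Viability measured as cellular ATP by CellTiter-Glo luminescence; AC50 from Hill fits of concentration-response.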

[9] = Cell Viability - NIH 3T3 (AID 541); conditions: NIH 3T3 cell viability, qHTS; activity change, negative = cytotoxicity: at 92.2 µM (top of the series); note: potency is the fitted concentration of half-maximal effect; nearly all actives have a fitted effect of over 25% in size
Summary of the method: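 Mouse NIH 3T3 fibroblasts, 1000 cells/well, rested 5 hr at 37 °C, then exposed to compound for 40 hr at 37 °C in complete medium. Viability read as intracellular ATP by CellTiter-Glo luminescence; AC50 from Hill-equation fits of concentration-response data.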

[10] = Cell Viability - Mesenchymal (AID 546); conditions: mesenchymal cells viability, qHTS; activity change, negative = cytotoxicity: at 91.7 µM (top of the series);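 note: cells exposed to compound for 40 hours before reading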
Summary of the method: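 Human kidney mesenchymal cells from normal renal glomeruli, 1000 cells/well, rested 5 hr at 37 °C, then treated 40 hr at 37 °C in complete medium. Cellular ATP read by CellTiter-Glo luminescence; AC50 from Hill-equation fits.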

[11] = Cellular Toxicity (caspase-3) SHSY5Y (AID 657); conditions: SH-SY5Y caspase-3 activation; series mostly up to 91.7 µM; note: potency is the fitted concentration of half-maximal effect
Summary of the method: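 Luminescent Caspase-Glo 3/7 read-out, 1 hr room temperature, follows 16 hours of compound treatment of SH-SY5Y cells at 37 °C. Normalization: DMSO basal, 10 uM staurosporine as 100%; AC50 values from Hill-equation concentration-response fits.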

[12] = Cellular Toxicity (caspase-3) BJ (AID 658); conditions: BJ fibroblasts, caspase-3 activation, luminescence; note: potency is the fitted concentration of half-maximal effect
Summary of the method: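 BJ human foreskin fibroblasts, 1000 cells/well, treated 16 hours at 37 °C in complete medium; caspase 3/7 activity by Caspase-Glo luminescence after 1 hr at room temperature. Normalized to DMSO and 10 uM staurosporine; AC50 from Hill fits.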

[13] = Cellular Toxicity (caspase-3) MRC-5 (AID 659); conditions: MRC-5 cells, luminescence; Potency: caspase-3 activation; series mostly up to 91.7 µM; note: potency is the fitted concentration of half-maximal effect
Summary of the method: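 MRC-5 human normal lung fibroblasts, 1500 cells/well, treated 16 h at 37 °C in complete medium. Caspase 3/7 measured by Caspase-Glo luminescence after 1 h at room temperature. Normalized to DMSO and 10 uM staurosporine; AC50 from Hill fit.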

[14] = Cellular Toxicity (caspase-3) Mesangial (AID 660); conditions: mesangial cells, normalized: DMSO 0%, 100 µM tamoxifen 100%; at 91.7 µM (top of the series);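 note: combined caspase 3 and 7 activity read by Caspase-Glo luminescence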
Summary of the method: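 Human renal glomerular mesangial cells, 1000/well, 5 h at 37 C before 16 h compound treatment. Caspase-Glo 3/7 luminescence after 20 min; normalized to DMSO and 100 uM tamoxifen, AC50 from Hill fit.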

[15] = Cellular Toxicity (caspase-3) SK-N-SH (AID 661); conditions: SK-N-SH caspase-3 activation, qHTS; caspase-3 activation: at 91.7 µM (top of the series), DMSO as zero, staurosporine as full
Summary of the method: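 Human SK-N-SH neuroblastoma cells, 1500/well, were exposed to compounds for 16 hours at 37 °C. Caspase-Glo 3/7 luminescence was normalized to DMSO (basal) and 10 uM staurosporine (100%), and AC50 came from a Hill fit.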

[16] = Cellular Toxicity (caspase-3) H-4-II-E (AID 663); conditions: H-4-II-E rat hepatoma; Potency: caspase-3 activation; caspase-3 activation: at 92.2 µM (top of the series), scaled: DMSO 0%, 100 µM tamoxifen 100%;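 note: cells exposed to compound for 16 hr before readout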
Summary of the method: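 Rat hepatoma H-4-II-E cells (1500/well) plated 5 hr, then exposed to compound titrations for 16 hr at 37 °C. Caspase-Glo 3/7 luminescence read after 20 min at RT; data normalized to DMSO and 100 uM tamoxifen, AC50 from Hill fits.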

[17] = Cellular Toxicity (caspase-3) N2a (AID 665); conditions: N2a cells, luminescence; Potency: caspase-3 activation; caspase-3 activation: at 92.2 µM (top of the series), normalized: DMSO 0%, 10 µM staurosporine 100%;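 note: potency is the fitted concentration of half-maximal effect; compound exposure lasted 16 h at 37 °C before readout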
Summary of the method: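 Mouse N2a neuroblastoma cells, 1500 per well, treated 16 h at 37 °C in complete medium; caspase-3/7 activity by Caspase-Glo luminescence after 1 h. Normalized to DMSO and 10 uM staurosporine; AC50 from Hill fits.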

[18] = biological target: Peroxisome proliferator-activated receptor gamma (Homo sapiens) (UniProt P37231); assay: qHTS assay for small molecule agonists of peroxisome proliferator-activated receptor gamma signaling (AID 588536; active = well fitted curve in the direction sought with a large enough effect in the signal ratio, with a control signal flat, not every such curve was filed as active; inconclusive = small, poorly fitted or top-dose-only effect, or effect the other way, or a change in a side signal; inactive = no such curve, though single readings can be large or run the other way; the % refers to the signal ratio;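 note: 0% = DMSO basal wells and 100% = rosiglitazone at 2 µM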); conditions: HEK293 PPARg-UAS-bla, beta-lactamase ratio, 16 h; activation: at 76.7 µM (top of the series), percent of rosiglitazone response, DMSO as zero
Summary of the method: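 HEK293 UAS-bla reporter line, 1% charcoal/dextran FBS; titration, 16 h, 37 C; CCF4 loading 2 h RT; fluorescence 460/530 nm. Normalized to rosiglitazone 2 uM = 100%, DMSO = 0%.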

[19] = qHTS assay for small molecule disruptors of the mitochondrial membrane potential - 1 hr assay (AID 651754; calls by dose curve; note: % is set by controls: 0 for no effect and ±100 for the full control effect; nearly all actives have a fitted effect of over 35% in size); conditions: ratio change, negative = depolarisation: at 92.2 µM (top of the series)
Summary of the method: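 HepG2 cells, attached overnight, were exposed to compound for 1 hr at 37C, then stained 30 min with a potentiometric dye. Ratio of red aggregate (590nm) to green monomer (535nm) fluorescence reports membrane potential; collapse shifts signal toward green.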

[20] = qHTS assay for small molecule disruptors of the mitochondrial membrane potential - 5 hr assay (AID 651755; calls by dose curve; note: % is set by controls: 0 for no effect and ±100 for the full control effect; nearly all actives have a fitted effect of over 40% in size); conditions: JC-1-type ratio dye; ratio change, negative = disruption: at 92.2 µM (top of the series)
Summary of the method: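 HepG2 cells (2,000/well), attached overnight, exposed to compound 5 hr at 37C, then Mito-MPS dye 30 min. Fluorescence read for monomers (490/535 nm) and aggregates (540/590 nm).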

[21] = qHTS assay for cell viability of HEK293 cells (AID 743288); conditions: ATP luminescence (CellTiter-Glo), 18 h; max response: hits give low values; note: potency is the fitted concentration of half-maximal effect; nearly all actives have a fitted effect of over 50% in size
Summary of the method: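 Total intracellular ATP, measured with a luciferase-coupled reagent, indicates the number of viable HEK293 cells. Exposure to test chemicals lasts 18 h at 37 C in 1,536-well format at 2,000 cells/well.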

[22] = biological target: Nuclear receptor subfamily 1 group I member 2 (Rattus norvegicus) (UniProt Q9R1A7); assay: qHTS assay for small molecule activators of the rat pregnane X receptor (rPXR) signaling pathway (AID 651751; call rule not given here; note: 0% is about no effect); conditions: rPXR reporter cells, luciferase (One-Glo), 24 h
Tags give direction and shape of the fitted curve.

Sequence of UniProt Q96RI1 (Q96RI1 whole entry, looked up): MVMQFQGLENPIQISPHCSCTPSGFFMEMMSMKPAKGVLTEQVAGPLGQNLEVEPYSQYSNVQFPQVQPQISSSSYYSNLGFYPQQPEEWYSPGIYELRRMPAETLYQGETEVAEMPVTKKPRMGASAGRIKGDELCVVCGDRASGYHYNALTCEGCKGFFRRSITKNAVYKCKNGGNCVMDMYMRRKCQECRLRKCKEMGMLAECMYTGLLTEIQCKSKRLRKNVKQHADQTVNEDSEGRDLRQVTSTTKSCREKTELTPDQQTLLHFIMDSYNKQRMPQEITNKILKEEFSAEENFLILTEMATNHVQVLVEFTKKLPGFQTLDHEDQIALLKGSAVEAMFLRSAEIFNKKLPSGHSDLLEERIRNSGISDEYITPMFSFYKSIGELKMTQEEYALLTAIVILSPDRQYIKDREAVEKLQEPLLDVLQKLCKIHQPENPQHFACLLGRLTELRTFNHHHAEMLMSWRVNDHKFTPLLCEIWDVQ
Sequence of UniProt Q9R1A7 (Q9R1A7 whole entry, looked up): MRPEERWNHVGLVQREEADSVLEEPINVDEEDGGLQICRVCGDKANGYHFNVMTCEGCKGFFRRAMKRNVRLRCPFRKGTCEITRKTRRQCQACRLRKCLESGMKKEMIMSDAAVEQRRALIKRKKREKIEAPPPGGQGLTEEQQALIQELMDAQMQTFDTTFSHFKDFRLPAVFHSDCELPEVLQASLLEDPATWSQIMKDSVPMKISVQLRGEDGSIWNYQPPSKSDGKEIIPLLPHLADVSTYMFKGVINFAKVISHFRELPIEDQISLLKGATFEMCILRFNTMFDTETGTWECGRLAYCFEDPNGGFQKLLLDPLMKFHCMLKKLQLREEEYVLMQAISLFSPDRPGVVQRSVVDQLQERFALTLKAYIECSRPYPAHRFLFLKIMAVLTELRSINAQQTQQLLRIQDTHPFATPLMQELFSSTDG

SMILES: CC1CCC2CC1C2(C)C (stereo not drawn)
- Potency [1]: inactive: > 92 µM
- Potency [2]: inactive
- Potency [3]: inconclusive [cytotoxic, single point]
- Potency [4]: inactive
- activation [5]: inactive: 3.3%
- Potency [6]: inactive
- Potency [7]: inactive

SMILES: C=CC(=O)OCC(CO)(COC(=O)C=C)COC(=O)C=C
- Potency [1]: active: 1.6 µM
- Potency [8]: active: 15.8 µM
- Potency [9]: active: 2 µM
- activity change, negative = cytotoxicity [10]: active: -91.9%
- Potency [11]: active: 2.51 µM
- Potency [12]: inconclusive [rising, single point]
- Potency [13]: inconclusive [rising, single point]
- caspase-3 activation [14]: inconclusive: -1.09%
- caspase-3 activation [15]: active: -3.53%
- caspase-3 activation [16]: inconclusive: -2.56%
- Potency [17]: active: 6.31 µM
- activation [18]: inconclusive: -17.5% and inconclusive: -34.5%
- ratio change, negative = depolarisation [19]: inconclusive: -25.7%
- ratio change, negative = disruption [20]: inconclusive: -24.5%
- Potency [21]: active: 5.01 µM and active: 22.4 µM
- max response [22]: inconclusive: -29.7% [activator]

From PubChem BioAssay (NCATS)
